This note sets out measurements from the supplement of paper PMC11417369.

The list shows a part of the results.

The experiment has as its system PF3D7_0420300 AP2 domain 1 (GST-tagged). As to the kind of experiment: gcPBM binding intensity (ln(normalized median fluorescence intensity)); higher = stronger DNA binding. The procedure, abridged: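 Binding of GST-tagged P. falciparum DNA-binding domains, expressed in E. coli and used at about 25 μg on average, was carried out for 1 h in 1× PBS containing 1% milk, 0.2 mg/ml BSA, 0.5% salmon testes DNA and 0.03% Triton X-100. The target was an Agilent 4 × 180k array of primer-extended double-stranded 36-bp intergenic genomic probes plus negative controls, read with Alexa488 anti-GST antibody at 488 nm. Binding intensity is the highest Masliner-normalised natural-log median intensity across replicate spots of either probe orientation.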
With “TATATATATGTTCTTACACACACGAATATATATATG [CACACA_site3304]”, the “gcPBM binding intensity (ln)” value was determined as 9.71.
“TTTTTTTTTTTTTTTTTTTTTTTTTCATATTAATAT [GTGCAC_negctrl_site351]”: the “gcPBM binding intensity (ln)” value came out at 8.36.
Turning to “ATTGATACATCCAATACACACTACATATTATGATGT [CACACA_site6965]”, the “gcPBM binding intensity (ln)” value stood at 9.46.
For “TTGGCATACAGACACACACACACACCCCCACATATA [CACACA_site590]”, the “gcPBM binding intensity (ln)” value is 10.1.
On to “AATTTATTAAAAAAATGTACTTATTTTTTTGTATAA [XGTACX_site5844]”, for which the “gcPBM binding intensity (ln)” value amounted to 8.95.
For the sequence “TTTTTTTTTTTTTTTACACACTTTATTCAAACAACT [CACACA_site4104]”, the “gcPBM binding intensity (ln)” value turned out to be 9.08.
Turning to “AAAAAAATATATAATAGTACATATATAGGAATATAT [XGTACX_site4591]”, the “gcPBM binding intensity (ln)” value came out at 9.45.
Consider “TAATATCTTGAGTCATCACACATTGATTAATGAATC [CACACA_site5735]”, for which the “gcPBM binding intensity (ln)” value was found to be 9.02.
For the sequence “TGAATACAGATATTCACACAAATAGTTTTGATATAT [CACACA_site5527]”, the “gcPBM binding intensity (ln)” value was 9.09.
As for “CTTTTTTTTTTTTTTGCACACACATATATAAATATA [CACACA_site3950]”, the “gcPBM binding intensity (ln)” value was found to be 9.83.
With “AGTGGAAATTTTATTTGTACATAAATATTTACATAC [XGTACX_site633]”, the “gcPBM binding intensity (ln)” value stood at 9.18.
In the case of “CTTTCTCTCAAAATGACATGCAATTTGTTTCTTTTT [TGCATGCA_site169]” it was 9.32; in that of “ATATATATATATATTTGTACTTAATTGATTTTACTT [XGTACX_site2663]”, 9.34.
Take “ATGCGTTTAGCAAAAAGTACATATATATATAATATT [XGTACX_site1928]”: the “gcPBM binding intensity (ln)” value turned out to be 9.22.
Under “ATTATTGATTTATAAACACACACTCGAAGATGTTTA [CACACA_site8294]” stands 9.27; under “ATTTTTTCTAGACATGCATGTGAAATTTACTTTTTT [TGCATGCA_site305]”, 9.24.
“TTGAAATACTTTATTTGTACATATAGCAAAGTGTAT [XGTACX_site8782]”: the “gcPBM binding intensity (ln)” value is 9.12.
For “GTTATAGAAGCATTCACACACACACGGACATACACA [CACACA_site6801]”, the “gcPBM binding intensity (ln)” value is 10.1.
As for “TTTTTTTATAAAAATGAACACACACCGATATATATA [CACACA_site9161]”, the “gcPBM binding intensity (ln)” value turned out to be 9.63.
For the sequence “TATTATAATATATTTGTGCACATAATACCTCCGCTA [GTGCAC_site9570]”, the “gcPBM binding intensity (ln)” value was found to be 9.19.
Regarding AATATATACATATGTATGCACTTTTTAATTATTTTT, the “gcPBM binding intensity (ln)” value is 9.4.
For the sequence “ACATATAAGTTATATACACACAATAATATGTAAATA [CACACA_site6766]”, the “gcPBM binding intensity (ln)” value was determined as 9.53.
With “ATATTTTTTATAAAATGTACTTATTATTAGAATATA [XGTACX_site2460]”, the “gcPBM binding intensity (ln)” value was 8.9.
“TACAAAATATGGTAATAAAGTAGTTACATGAATTGG [XGTACX_negctrl_site522]”: the “gcPBM binding intensity (ln)” value stood at 9.32.
With “TAGTAAGAATTACTGTGTACTAAAATATTAAAAAGT [XGTACX_site2578]”, the “gcPBM binding intensity (ln)” value was determined as 9.26.
Consider “AAATAGTCTTCTCTTGCATGTAACAAATATATATAT [TGCATGCA_site428]”, for which the “gcPBM binding intensity (ln)” value is 9.34.
In the case of “AATAAAAACAAACAAAAAAACAAATAAATAAATAAA [CACACA_negctrl_site483]” it was 9.65; in that of “AATATATTGCACCATTGGACCTGAATAATTCTTCCA [CACACA_negctrl_site1071]”, 9.21; in that of “GTAAGAAACGGACACACACACATATATATATATATA [CACACA_site4593]”, 9.75.
Take “AAAAAAAAAAATTCCAGTACACACAATAATACTAAA [XGTACX_site5930]”: the “gcPBM binding intensity (ln)” value came to 9.76.
Turning to “TAAATAATCATAGTTCTACACACCTATATTGCAAAA [CACACA_site8190]”, the “gcPBM binding intensity (ln)” value was determined as 9.35.
Under “ATATATATAATATGATGTACTATTTTGATAAAAAAT [XGTACX_site3975]” stands 9.25; under “GTTATAGAAGCATTCACACACACACCGACATACACA [CACACA_site4914]”, 10.1.
For the sequence “ATATATATATAAATATAAATATATATATATATATAT [CACACA_negctrl_site1685]”, the “gcPBM binding intensity (ln)” value was 8.82.
As for “AATAATTAAATATATTTATAACAGGAAAATATTTAT [XGTACX_negctrl_site175]”, the “gcPBM binding intensity (ln)” value is 9.27.
With ATAAATTATATTCAAGTGCATGTAACTTATTATTAT, the “gcPBM binding intensity (ln)” value was found to be 9.23.
Consider “AAAAAAATCACATAATATACTTTATTTTATTTTGTA [GTGCAC_negctrl_site562]”, for which the “gcPBM binding intensity (ln)” value turned out to be 9.15.
Regarding “ACAAAGAACTATAATACACACAAGAATATATTGGAT [CACACA_site7771]”, the “gcPBM binding intensity (ln)” value stood at 9.94.
As for “TTATAAGATTTATGTACACACATATACACCCCTCTA [CACACA_site4562]”, the “gcPBM binding intensity (ln)” value was determined as 9.43.
Consider “TATATATAGAAACACACACACACATATATATATATT [CACACA_site2539]”, for which the “gcPBM binding intensity (ln)” value was 10.1.
As for “TCATACATTTTCCTTGCACACATTTATAATTAATGT [CACACA_site614]”, the “gcPBM binding intensity (ln)” value worked out at 9.67.
“TTGTAATATATAAAAGTGCATATATGGTTCCATATA [GTGCAC_site9544]”: the “gcPBM binding intensity (ln)” value is 9.23.
For “TAATTTATTGTACGTGCATGCTATTTTTTATTTTTA [TGCATGCA_site1059]”, the “gcPBM binding intensity (ln)” value came to 9.54.
As for “AACAAAAAAACAAACACACACACACCCATATATATA [CACACA_site3652]”, the “gcPBM binding intensity (ln)” value was 9.98.
In the case of “ATATGTGAATAAAAATGTACGTGTTCTTTTTTTTTT [XGTACX_site320]” it was 9.24; in that of “TGTGGCCCTGCGAGGTGGTCATCATGAATACGAAAA [XGTACX_site1526]”, 8.84; in that of TCAAAAATTTATATAGTGCAATATATATATAATGTA, 9.08.
On to “TGAATTAACAAATAGACACACATATATATATATATA [CACACA_site3195]”, for which the “gcPBM binding intensity (ln)” value amounted to 9.3.
Turning to TTAAAAAATATATGCGTGCACTAATATTTCATATGC, the “gcPBM binding intensity (ln)” value was found to be 9.05.
As for “TACTATTTTTATAATACACACATATATTTGTGATAT [CACACA_site1775]”, the “gcPBM binding intensity (ln)” value turned out to be 9.38.
Consider “ACCATTTGTACTTACGCACACATAAAATATATATAT [CACACA_site1545]”, for which the “gcPBM binding intensity (ln)” value stood at 9.64.
In the case of “TATTATATAATTTTAACACACAAGAATATAAACTTT [CACACA_site1363]”, the “gcPBM binding intensity (ln)” value is 9.45.
With “TAACAAAATGTAAATAAACACACATATATATATATA [CACACA_site8352]”, the “gcPBM binding intensity (ln)” value turned out to be 9.37.
As for “AACATTCTATGTTGCACACAAAGAGAAAAATTTATT [CACACA_site3995]”, the “gcPBM binding intensity (ln)” value amounted to 9.33.
Consider “AAAAAGAAAAAACTTACACACATATATACCCCCATG [CACACA_site4463]”, for which the “gcPBM binding intensity (ln)” value stood at 10.2.
As to “TGAAGGAATACAGCTCGTACATGTGTAAAGAGATAA [XGTACX_site500]”, the “gcPBM binding intensity (ln)” value stood at 9.32.
On to “TAATTTAAATGATGTAGTACATATAAATATATCTAA [XGTACX_site262]”, for which the “gcPBM binding intensity (ln)” value was 9.05.
